Experimental data reported in article PMC4336329 (PLoS ONE, 2015).
Hit rate of the full screen: of about 310,000 compounds, about 14,000 (4.5%) showed an effect of 50% or more. The effect is printed as a negative number. The list shows a part of the results.

molecular target: human ether-à-go-go-related gene (hERG) potassium channel (human, UniProt Q12809); experiment: primary screen, population patch clamp on CHO cells stably expressing hERG
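Also: peak tail current of the secondary pulse compared with the same well before compound.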

Chain of human ether-à-go-go-related gene (hERG) potassium channel (Q12809 whole entry, looked up): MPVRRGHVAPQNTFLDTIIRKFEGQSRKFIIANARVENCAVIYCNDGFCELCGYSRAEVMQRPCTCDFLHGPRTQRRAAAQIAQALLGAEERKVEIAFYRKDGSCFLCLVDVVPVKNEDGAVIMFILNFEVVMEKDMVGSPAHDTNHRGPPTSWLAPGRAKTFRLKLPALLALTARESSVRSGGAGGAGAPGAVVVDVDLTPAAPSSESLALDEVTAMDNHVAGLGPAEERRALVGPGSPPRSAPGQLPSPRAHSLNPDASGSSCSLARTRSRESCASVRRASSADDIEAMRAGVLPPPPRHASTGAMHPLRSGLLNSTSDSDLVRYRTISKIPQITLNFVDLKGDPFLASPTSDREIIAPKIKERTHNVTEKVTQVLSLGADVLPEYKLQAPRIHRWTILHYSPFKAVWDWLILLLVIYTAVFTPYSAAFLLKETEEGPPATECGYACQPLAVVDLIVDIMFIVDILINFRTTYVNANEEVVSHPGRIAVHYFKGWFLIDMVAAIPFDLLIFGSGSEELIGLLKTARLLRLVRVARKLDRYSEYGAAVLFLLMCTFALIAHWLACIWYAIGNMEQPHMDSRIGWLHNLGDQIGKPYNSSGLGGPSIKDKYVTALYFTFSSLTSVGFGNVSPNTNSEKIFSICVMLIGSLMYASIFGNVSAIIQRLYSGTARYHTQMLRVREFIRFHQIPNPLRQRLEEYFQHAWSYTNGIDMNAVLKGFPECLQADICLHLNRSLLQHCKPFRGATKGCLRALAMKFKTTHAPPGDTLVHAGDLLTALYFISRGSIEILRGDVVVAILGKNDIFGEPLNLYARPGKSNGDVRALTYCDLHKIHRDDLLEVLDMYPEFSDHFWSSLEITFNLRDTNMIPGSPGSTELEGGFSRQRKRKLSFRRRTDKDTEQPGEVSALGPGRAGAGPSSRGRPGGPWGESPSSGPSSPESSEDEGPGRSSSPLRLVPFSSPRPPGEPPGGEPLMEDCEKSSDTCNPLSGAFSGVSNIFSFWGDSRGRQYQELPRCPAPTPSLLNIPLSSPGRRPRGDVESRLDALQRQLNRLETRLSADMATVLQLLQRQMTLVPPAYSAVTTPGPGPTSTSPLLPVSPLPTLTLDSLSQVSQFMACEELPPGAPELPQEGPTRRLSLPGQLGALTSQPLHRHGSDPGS

| Structure (SMILES) | hERG current change (%, negative = inhibition) at 10uM [%] |
| --- | --- |
| CCOC(=O)N1CCN(Cc2nc(Cc3cccc(C(F)(F)F)c3)no2)CC1 | -15 |
| CN(C)CCNC(=O)c1c(CSc2ccc(Cl)cc2)noc1C(=O)NCc1ccccc1 | -7.93 |
| C/[N+]([O-])=C/c1c(OCc2ccc(Cl)cc2Cl)ccc2ccccc12 | 20.4 |
| Cc1ccc(NS(=O)(=O)c2ccc(N3CCN(c4ccc(O)cc4)CC3)c([N+](=O)[O-])c2)c(C)c1 | 2.66 |
| O=C(Nc1ccc([N+](=O)[O-])cn1)C1CC2CCC1C2 (centres unmarked) | -15.3 |
| c1ccc(CCc2nc(-c3ccccn3)no2)cc1 | -1.19 |
| CCCN1CCN(C(=S)NCc2ccc(Cl)cc2)CC1 | -36 |
| CN(C(=O)COC(=O)COc1ccc(Cl)cc1Cl)c1c(N)n(Cc2ccccc2)c(=O)[nH]c1=O | 24.3 |
| Cc1cc(N2CCC(C)CC2)n2nc(C)c(-c3ccccc3)c2n1 | 5.93 |
| COc1ccccc1NC(=O)Nc1cc(F)ccc1F | 24.4 |
| COc1ccc(CCN2CC(C(=O)NC3CCCCC3)CC2=O)cc1OC (centres unmarked) | 10.2 |
| CCCCS/C(N)=N/N=C/c1cc(C)ccc1O | 2.19 |
| CCOc1nc(-c2ccccc2Cl)nc2ccccc12 | -8.26 |
| CCOC(=O)Cc1csc(NC(=O)CN2CCCCC2)n1 | 9.3 |
| O=C(Nc1ccccc1)OCCNC(=O)c1cccc(Br)c1 | 8.28 |
| Cc1ccc(C(=O)COC(=O)CN2C(=O)C3C4C=CC(C4)C3C2=O)cc1[N+](=O)[O-] (centres unmarked) | 21.5 |
| COc1ccc(-c2nc(CS(=O)CC(=O)NC3CCCC3)c(C)o2)cc1OC (centres unmarked) | -8.51 |
| COc1ccc(NC(=O)Cn2c(C)cc(=O)c3ccccc32)cc1 | -7.76 |
| CCCc1n[nH]c2c1/C(=N\OCC)CC(C)(C)C2 | 0.797 |
| COc1ccc(/C=N/N2C(C)CCCC2C)cc1O (centres unmarked) | 18.8 |
| O=C(Cn1nc(C(F)F)cc1C1CC1)N1CCCC1 | 1.61 |
| NNC(=O)c1ccc(COc2ccc([N+](=O)[O-])cc2)o1 | -23.1 |

| Structure (SMILES) | hERG current change (%, negative = inhibition) at 10uM [%] |
| --- | --- |
| Cc1ccsc1/C=N/NC(=O)C1C(=O)NCC1c1ccccc1 (centres unmarked) | 1.53 |
| Nc1ncnc(N)c1N=Nc1ccccc1 | 15 |
| O=C(NCc1ccncc1)C1CCCN1S(=O)(=O)c1ccc(Cl)cc1 (centres unmarked) | -8.68 |
| Cc1nonc1CN(C)C(=O)c1ccc(OC2CCN(C(=O)c3cccnc3)CC2)cc1 | 32 |
| CC(C)CC(=O)N1CCN(C(=O)c2ccc(-c3ccccc3)cc2)CC1 | -4.45 |
| O=C(CSc1nnc(NC(=O)c2ccc3c(c2)OCO3)s1)NCc1ccco1 | 20 |
| Cc1noc(C)c1COC(=O)CCCc1c[nH]c2ccccc12 | -0.395 |
| COc1cc(C(=O)N2CCN(C3CCC(C)CC3)CC2)cc(OC)c1OC.O=C(O)C(=O)O (centres unmarked) | 8.29 |
| Cl.c1coc(CNCc2cccs2)c1 | 6.9 |
| CCc1ccc(C(=O)NCC2COc3ccccc3O2)o1 (centres unmarked) | -24.3 |
| CCOC(=O)Nc1ccc2ncn(C)c(=O)c2c1 | 15.8 |
| COc1ccc(S(=O)(=O)N2CCC(C(=O)N(C)Cc3ccc(C)o3)CC2)cc1OC | -18.4 |
| Nc1nc(-c2ccco2)nn1C(=O)c1ccccc1 | 19.9 |
| CCOc1cc(C(=O)NCc2ccccc2)ccc1OCC(=O)N1CCOCC1 | 1.44 |
| N#Cc1ccc(C(=O)OCCc2cc3ccccc3c(=O)o2)cc1 | -29 |
| CCOc1ccc(-c2n[nH]c(C)c2-c2ccccc2OC)c(O)c1 | 23.4 |
| O=C(NN1C(=O)/C(=C/c2cccs2)SC1=S)c1ccncc1 | -5.9 |
| COc1cccc(C2C(C(=O)c3cc4ccccc4o3)=C(O)C(=O)N2CCN2CCOCC2)c1 (centres unmarked) | 16.7 |
| C=CCN(C(=O)c1csnn1)C(C(=O)NC1CCCC1)c1ccccc1F (centres unmarked) | 8.11 |
| O=C(COc1ccccc1)N1CCN(C(=O)c2ccco2)CC1 | -8.03 |
| C[C@@]12C(=O)N(c3cccc(Cl)c3)C(=O)N1[C@H](c1ccc(Cl)cc1)[C@@H]1C(=O)N(C3CCCCC3)C(=O)[C@@H]12 | 3.04 |
| CCN(c1ccccc1)S(=O)(=O)c1cc2c(cc1C)n(C)c(=O)c(=O)n2C | -32 |
